Test results published in the supplement of paper PMC3334620.
In all, about 33,000 sequences were measured (“E-score (-0.5 to 0.5)”: median about -0.043, highest 2% from about 0.37 on). Some of the results follow.

What follows are sequences tested against T1, Upc2 (UniProt Q12151) (assay: PBM E-score (8-mer binding enrichment) (E-score (-0.5 to 0.5)); higher = stronger / more preferred TF binding; most listed sequences are background and not binding sites). Conditions: protein concentration: 200 nM; construct: GST-full length.
T1 sequence: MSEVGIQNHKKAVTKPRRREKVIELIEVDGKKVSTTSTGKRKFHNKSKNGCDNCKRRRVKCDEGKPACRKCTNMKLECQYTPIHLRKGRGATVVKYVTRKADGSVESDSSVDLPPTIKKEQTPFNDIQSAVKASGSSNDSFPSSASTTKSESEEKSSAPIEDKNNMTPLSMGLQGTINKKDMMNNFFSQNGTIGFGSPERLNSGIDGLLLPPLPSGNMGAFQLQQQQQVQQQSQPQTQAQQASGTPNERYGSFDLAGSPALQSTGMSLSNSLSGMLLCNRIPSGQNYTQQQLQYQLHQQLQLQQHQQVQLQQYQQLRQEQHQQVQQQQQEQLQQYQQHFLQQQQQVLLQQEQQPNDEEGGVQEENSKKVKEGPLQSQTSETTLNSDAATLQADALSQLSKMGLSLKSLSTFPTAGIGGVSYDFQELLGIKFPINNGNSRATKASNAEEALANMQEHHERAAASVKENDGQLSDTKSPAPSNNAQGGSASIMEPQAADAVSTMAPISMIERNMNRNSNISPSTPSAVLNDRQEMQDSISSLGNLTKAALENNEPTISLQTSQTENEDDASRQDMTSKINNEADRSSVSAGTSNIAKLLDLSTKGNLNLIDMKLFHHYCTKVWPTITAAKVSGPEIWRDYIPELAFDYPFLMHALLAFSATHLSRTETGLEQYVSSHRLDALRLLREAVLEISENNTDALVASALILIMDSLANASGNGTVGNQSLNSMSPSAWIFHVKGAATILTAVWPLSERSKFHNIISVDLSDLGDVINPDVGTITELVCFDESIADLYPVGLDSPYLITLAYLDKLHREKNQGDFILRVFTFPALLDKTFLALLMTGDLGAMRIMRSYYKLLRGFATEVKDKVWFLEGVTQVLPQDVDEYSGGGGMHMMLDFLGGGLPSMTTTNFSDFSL
Procedure, shortened: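 E-scores (a modified Wilcoxon-Mann-Whitney statistic) were assigned by the Universal PBM Analysis Suite to every ungapped eight-base word pooled with its reverse complement. The input came from universal all-10-mer Agilent arrays made double-stranded by primer extension and probed with GST-tagged yeast transcription factors at about 100-200 nM. Fluorescent anti-GST detected bound protein, and masliner normalised the scans.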

| Sequence | PBM E-score |
| --- | --- |
| ATATTGAC | -0.126 |
| AAGCCCCT | -0.0302 |
| GTTGTCAA | -0.00594 |
| GGAATACC | -0.106 |
| AGAAAACC | 0.0183 |
| GCTATTAA | -0.0587 |
| CCCGGTCA | -0.343 |
| GCACATGA | -0.186 |
| GACGCGGC | -0.167 |
| CAAGCGGC | -0.119 |
| ACTTGACA | -0.161 |
| CTCTTTAC | 0.134 |
| CGACGTTA | 0.197 |
| ACTACGGC | -0.155 |
| AATGGATG | -0.0585 |
| ACAGGTAA | -0.0299 |
| ACACAACA | 0.0766 |
| AATGTTTC | -0.0346 |
| TCCCGAAA | -0.0081 |
| AGTGGTAT | -0.078 |
| AATCGCCA | -0.0984 |
| TCAAGGAA | -0.169 |
| AAGAGTGC | 0.084 |
| ACAAGTAT | 0.0931 |
| AATTTGGT | 0.0769 |

| Sequence | PBM E-score |
| --- | --- |
| ATGCTCCG | -0.0329 |
| ACCACCCA | -0.115 |
| AGACTTAC | 0.00516 |
| GTTCTGGA | 0.194 |
| CTCGTCCC | -0.109 |
| CTCCAGCC | -0.143 |
| ATTATTTG | 0.103 |
| ACCTTTCG | 0.0612 |
| CTTCCCAA | -0.0805 |
| GATATAAC | 0.0872 |
| GTGGGGGA | -0.0719 |
| ATCACCCG | -0.0602 |
| CGATTGGC | -0.0394 |
| AAGTAAGC | -0.0673 |
| CCGAGGTC | 0.0232 |
| TCTCCTCA | -0.127 |
| GGAGTCTA | -0.43 |
| ATCCTTAA | -0.108 |
| GCCTAAGA | -0.168 |
| GAGTCCGA | 0.021 |
| GTGACTAA | -0.14 |
| ACCCACGA | -0.072 |
| GAGGCTGA | -0.376 |
| ATATCTCA | 0.0282 |
| GGCGAGTA | -0.122 |

| Sequence | PBM E-score |
| --- | --- |
| TACGAGTA | 0.453 |
| GAAGTAGC | -0.138 |
| AACCACAT | -0.0732 |
| GATGGGGA | -0.161 |
| GTGGCCAA | -0.135 |
| GGCCTTTA | -0.0177 |
| ACCTGCGT | 0.0477 |
| CGCATACG | 0.439 |
| CCTTAAGG | 0.0757 |
| GGGTTGAA | -0.00166 |
| ATCAGTCC | -0.324 |
| CGCTAGGA | -0.174 |
| CGAGTAGA | 0.185 |
| ACAAAATC | -0.0623 |
| ACTTGATG | -0.175 |
| GGGAATCA | -0.215 |
| CAAAGCCG | 0.06 |
| ACAAAAGT | -0.0314 |
| TAAAGGCA | -0.0239 |
| AAGGGACG | -0.144 |
| CCGTGTCC | -0.0488 |
| ACGTATCA | 0.254 |
| CCAGGTAA | 0.0585 |
| AACTAATA | 0.128 |
| CAGCGCCG | -0.0432 |

| Sequence | PBM E-score |
| --- | --- |
| CCCCTTCG | -0.0374 |
| GCACATAA | 0.0187 |
| CCAGGTAC | 0.151 |
| AACCTGCC | -0.0992 |
| CGGAGAAA | 0.158 |
| CAGCAGAC | -0.0929 |
| TATGTGAA | -0.0221 |
| GCCTAACC | 0.0492 |
| CAAAGTCC | -0.11 |
| TAGAGTAA | 0.0614 |
| AGATCAAG | 0.0695 |
| AAGGTTCG | 0.0908 |
| GTTGGCAA | 0.0589 |
| TCCGTTAA | 0.264 |
| CGGTTCCC | 0.0304 |
| GGGACAAA | -0.18 |
| CTCCAGAC | 0.0472 |
| TAGGTTAA | -0.118 |
| CAACCGCC | -0.167 |
| CTTATGTC | -0.0966 |
| CTATAGCC | -0.175 |
| CGGTGCAC | 0.0462 |
| ACTATTCA | -0.0687 |
| AAGCGCTT | 0.0453 |
| CCGTATAC | 0.475 |

| Sequence | PBM E-score |
| --- | --- |
| CCGAGACA | -0.0494 |
| ATCCGGTG | 0.083 |
| CATGGCCC | -0.168 |
| AGGGGCCC | -0.251 |
| GCACAAGC | -0.0365 |
| CTAATTAG | 0.0658 |
| ATTCAGAA | -0.144 |
| AGAGCTAC | -0.203 |
| CGGCACTC | -0.264 |
| CCGAAGGA | -0.0603 |
| CACGATCC | 0.17 |
| GACTTTCA | -0.187 |
| GACAACCC | 0.0735 |
| AGCGGATG | 0.0282 |
| ATACACGG | 0.115 |
| TGATAGCA | 0.0194 |
| CTGTCCGC | 0.0788 |
| AAATGATA | 0.12 |
| ATGTAAAT | -0.0283 |
| CCTCTTGA | -0.204 |
| GGCCTGTA | -0.196 |
| GTGGGGAA | -0.0782 |
| AAGGCCAT | 0.0801 |
| CTGCGCAC | -0.147 |
| GTGTGTAA | -0.0869 |

| Sequence | PBM E-score |
| --- | --- |
| ACGATCGT | 0.438 |
| AGAACCAC | -0.128 |
| CTCAATTC | 0.128 |
| CTCACGAG | 0.0684 |
| AGAGGTTC | 0.0141 |
| ATCATGCA | -0.266 |
| GGTGTTAA | 0.0966 |
| GCCGGTCA | -0.19 |
| GCGAAACA | 0.0326 |
| ACCATTGC | -0.00631 |
| CGAGTTAC | 0.185 |
| GCTAAGCA | -0.159 |
| CGTTGTAA | 0.0415 |
| GTAAGATA | 0.15 |
| ACCCTGGC | -0.206 |
| ATATGGTA | 0.158 |
| AACGTAGT | 0.171 |
| CACATTGA | -0.0226 |
| GGACGAAC | 0.0508 |
| CCGAATAC | 0.228 |
| AAATAATG | 0.0432 |
| CAACTTTA | 0.104 |
| GAAACGGC | 0.187 |
| CCAAGCAC | -0.21 |
| GCCCGAGA | -0.175 |

| Sequence | PBM E-score |
| --- | --- |
| GATCACAA | -0.0358 |
| ATATACAA | -0.0498 |
| TATCAAAA | -0.0205 |
| ACTACATC | -0.156 |
| CTCGTCAC | 0.0127 |
| CTAACCTC | -0.0576 |
| AGGCCCAT | -0.117 |
| GAGGCCCC | -0.229 |
| AAAGGAAC | 0.182 |
| GCGCCCAA | -0.00323 |
| TCTATAGA | -0.316 |
| CCGAGAGC | 0.154 |
| GCATGGCA | -0.138 |
| CACCGCAC | -0.0191 |
| GCGAAACC | 0.0361 |
| ACGGGTAA | 0.174 |
| CAGCTTGG | -0.272 |
| ACCGCGTC | 0.0567 |
| TATCGTAA | 0.384 |
| AAAAGCAG | -0.146 |
| GGTGATAC | 0.0232 |
| ATTAGCAA | 0.00693 |
| AAAGGTTA | -0.0321 |
| ACCGCCGC | 0.135 |
| CCAGATGA | -0.189 |

| Sequence | PBM E-score |
| --- | --- |
| TAGGTCCA | -0.0314 |
| ATTATCAC | -0.0604 |
| TATCTTAA | -0.0702 |
| AATACGTA | 0.196 |
| ATAAGGAC | 0.00647 |
| CAACGGTA | 0.0169 |
| ACACGTGC | -0.0929 |
| ACGGGAGC | 0.222 |
| CACAGCAG | -0.0662 |
| CATGAACG | 0.301 |
| AGTCTCAC | -0.104 |
| GGGGGCGA | -0.119 |
| CTGCGTAC | 0.271 |
| CCCAAGCC | -0.0899 |
| AATCGATT | 0.128 |
| CAGCCACA | -0.249 |
| CTGGCACC | -0.198 |
| AAACTATC | 0.0931 |
| ACATCATC | -0.127 |
| CTGGGTGC | -0.106 |
| GGCCAATA | -0.0758 |
| ACCGGCGA | 0.0232 |
| CTCTATAA | -0.00484 |
| ATAAGCAC | 0.0464 |
| CATATAGG | -0.181 |

| Sequence | PBM E-score |
| --- | --- |
| TACTGACA | -0.028 |
| ACTGTGAT | -0.122 |
| TAGCGGCA | -0.0553 |
| GGGAGGAA | -0.119 |
| AAACCAGC | -0.123 |
| GAAGTGGA | -0.0244 |
| CGATTCCG | 0.0502 |
| CTCGTAGA | 0.404 |
| AGCTTACA | 0.111 |
| ATGAATGA | -0.119 |
| GGAAAGCC | -0.133 |
| CCCATGAG | -0.311 |
| GTCCCTTA | 0.0853 |
| ATTGGCCA | -0.117 |
| TGGTGCAA | -0.196 |
| GGAGTATA | -0.09 |
| GACCTCCA | -0.16 |
| TCCGGCGA | -0.0332 |
| CCGGACAA | -0.0455 |
